Measurements as given in the supplement of paper PMC4604168 (melanoma cell lines).
This is one part of the list. Repeats are few or missing, and single values can be far off.

Tests used:
Assay in all cases: cell count relative to DMSO control; melanoma cells; higher = more viable cells
Conditions in all cases: library dose: standard library concentration; 72 h
IST-MEL1 = tested on: IST-MEL1
LB2518-MEL = tested on: LB2518-MEL
LOXIMVI = tested on: LOXIMVI
MEL-HO = tested on: MEL-HO
MZ2-MEL = tested on: MZ2-MEL
MeWo = tested on: MeWo
RPMI7951 = tested on: RPMI7951
RVH-421 = tested on: RVH-421
SkMel28 = tested on: SkMel28
SkMel2 = tested on: SkMel2
SkMel30 = tested on: SkMel30
SkMel5 = tested on: SkMel5
UACC257 = tested on: UACC257
UACC62 = tested on: UACC62
WM115 = tested on: WM115
WM1716 = tested on: WM1716
WM1745 = tested on: WM1745
WM3526 = tested on: WM3526
WM3619 = tested on: WM3619
WM451Lu = tested on: WM451Lu
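Note: cells treated in 1,536-well plates, then fixed and DAPI-stained, with nuclei counted from automated high-throughput microscope images.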

SMILES | cell count (IST-MEL1) | cell count (LB2518-MEL) | cell count (LOXIMVI) | cell count (MEL-HO) | cell count (MZ2-MEL) | cell count (MeWo) | cell count (RPMI7951) | cell count (RVH-421) | cell count (SkMel28) | cell count (SkMel2) | cell count (SkMel30) | cell count (SkMel5) | cell count (UACC257) | cell count (UACC62) | cell count (WM115) | cell count (WM1716) | cell count (WM1745) | cell count (WM3526) | cell count (WM3619) | cell count (WM451Lu)
O=C1NC(=O)/C(=C/c2ccc(-c3ccc(F)cc3O)o2)S1 + O=c1cc(-c2cccc3c2Sc2ccccc2S3)oc(N2CCOCC2)c1 [KU55933] (first compound 5 µM, partner dose 5 µM) | 99.6% | 118% | 111% | 81% | 97.8% | 88.6% | 102% | 113% | 112% | 83.8% | 97.5% | 95.5% | 105% | 91.3% | 114% | 94.9% | 104% | 68.2% | 101% | 96.6%
COc1cc2ncnc(Nc3ccc(Oc4ccccc4)cc3)c2cc1OC + COc1cc(N2CCC(N3CCN(C)CC3)CC2)ccc1Nc1ncc(Cl)c(Nc2ccccc2S(=O)(=O)C(C)C)n1 [NVP-TAE684] (first compound 10 µM, partner dose 0.4 µM) | 88.2% | 118% | 34% | 75.3% | 49.8% | 53.8% | 39.5% | 96.6% | 61.2% | 73.8% | 99.4% | 45.6% | 74.8% | 58.3% | 73.3% | 61.9% | 32.8% | 42.7% | 60.6% | 59.7%
N#Cc1c(O)c2c(-c3ccc(-c4ccccc4O)cc3)csc2[nH]c1=O + Cn1cc(/C=C2\C(=O)Nc3cccnc32)c2ccccc21 [GW441756] (first compound 10 µM, partner dose 2 µM) | 89.7% | 176% | 96.3% | 98.5% | 93.5% | 91.7% | 87.9% | 83.1% | 82.2% | 94.4% | 100% | 69% | 89.3% | 73% | 94.7% | 98.6% | 93.9% | 95.2% | 83.7% | 104%
O=S(=O)(c1ccccc1)N(CC(F)(F)F)c1ccc(C(O)(C(F)(F)F)C(F)(F)F)cc1 + O=C1NC(=O)/C(=C/c2ccc(-c3ccc(F)cc3O)o2)S1 [AS252424] (first compound 7 µM, partner dose 5 µM) | 101% | 88.2% | 86.4% | 63.4% | 81.6% | 83.4% | 111% | 99.4% | 74.7% | 75.1% | 86.4% | 64.3% | 91.2% | 96.9% | 101% | 149% | 61.6% | 72.3% | 56.2% | 94%
Oc1nc(-c2ccc(C(F)(F)F)cc2)nc2c1CSCC2 + COc1cc(N2CCC(N3CCN(C)CC3)CC2)ccc1Nc1ncc(Cl)c(Nc2ccccc2S(=O)(=O)C(C)C)n1 [NVP-TAE684] (first compound 10 µM, partner dose 0.4 µM) | 107% | 130% | 115% | 82.6% | 106% | 69.3% | 67.7% | 108% | 73.4% | 71.2% | 130% | 71.1% | 76.8% | 86.8% | 76% | 78.4% | 45% | 86.3% | 67.8% | 91.3%
O=C1NC(=O)/C(=C/c2ccc(-c3ccc(F)cc3O)o2)S1 + Oc1nc(-c2ccc(C(F)(F)F)cc2)nc2c1CSCC2 [XAV939] (first compound 5 µM, partner dose 10 µM) | 103% | 81% | 83% | 76.6% | 83.6% | 70.9% | 104% | 99.9% | 102% | 89.2% | 119% | 83.1% | 77.3% | 126% | 105% | 75.1% | 65.8% | 92.1% | 72.1% | 93%
COc1ccc(COc2ccc(Cc3cnc(N)nc3N)cc2OC)cc1 + O=C(O)C(=O)Nc1sc2c(c1C(=O)O)CCNC2 [TCS401] (first compound 5 µM, partner dose 8.33333 µM) | 95.3% | 96.1% | 124% | 94.3% | 107% | 80% | 102% | 99.4% | 102% | 104% | 103% | 65.4% | 72.1% | 74.6% | 87.2% | 82.8% | 72.8% | 71.9% | 76.1% | 80.5%
COc1ccc2c(c1)CCC1C2CCC2(C)C(NCCCCCCN3C(=O)C=CC3=O)CCC12 (stereo not given) + O=C(O)C(=O)Nc1sc2c(c1C(=O)O)CCNC2 [TCS401] (first compound 2 µM, partner dose 8.33333 µM) | 89% | 66.9% | 82.7% | 81.6% | 81.3% | 42.4% | 28.8% | 85.7% | 65.3% | 86.5% | 92.5% | 65% | 79.3% | 94.7% | 72.2% | 69.9% | 67.3% | 76.2% | 60.6% | 74.3%
